# Data as given in ChEMBL document CHEMBL4888484, “Replenishing the malaria drug discovery pipeline: Screening and hit evaluation of the MMV Hit Generation Library 1 (HGL1) against asexual blood stage Plasmodium falciparum ,using a nano luciferase reporter read-out” (2022).
# Out of some 150,000 compounds screened, about 540 (0.36%) showed an effect of 50% or more. This is one part of the list.
# System: Plasmodium falciparum
# Test: Primary screen in NF54 nanoGlo assay, in single point, at 2uM, 72h; a lower Z score goes with more inhibition
# Format: functional, Erythrocyte
# Details: timepoint 72 hour
Compound,% Inhibition [%],Z score
CC(C)(C)[C@@H](C#N)NS(=O)(=O)c1cccc(Cl)c1,-2,0.22
O=C(NC[C@@H](O)CN1CCc2ccccc2C1)C1CCCOC1 (stereo partly drawn),2,-0.19
Cc1ccc(Br)c(F)c1C#N,-8,0.74
COc1ccc(CC(=O)Nc2nc(C)nn2-c2ccc(C#N)cc2)cc1,-7,1.01
O[C@@H](Cc1nc2ccccc2o1)c1ccc(C(F)(F)F)cc1,-9,1.04
O=C(c1coc(CN(CCc2c[nH]c3ccccc23)Cc2ccc(C(F)(F)F)cc2)n1)N1CCCC1,-14,2.25
CC(C)n1ncnc1CNS(=O)(=O)CC12CCC(CC1)C2,3,-0.42
O=C(c1ccc2[nH]c3c(c2c1)CCCC3)N1CCCCC1,3,-0.29
Cc1cc2ncn(Cc3cc(C(=O)N4CCC[C@H]4CO)n[nH]3)c2cc1C,-1,0.15
COCCn1nnnc1[C@]1(N2CCCC2)CCN(C(=O)c2cc3ccccc3[nH]2)C1,-6,0.72
CCCc1cnc(NCc2c(C)nn(C)c2OC)s1,-6,1.13
COC[C@@](C)(C#N)NC(=O)c1ccc(Br)cc1O,-2,0.25
Cc1cc(C(=O)NC[C@H]2COC3(CCC(C)CC3)O2)on1 (stereo partly drawn),-9,1.14
Cc1nc2c(NS(=O)(=O)c3cnn([C@H]4CCOC4)c3)cccc2o1,3,-0.56
Cc1nc2cc(-c3noc(CNC(=O)Cc4ccccc4)n3)ccc2o1,-9,0.91
CCn1c(CCc2ccccc2NS(=O)(=O)c2ccc(OC)c(Cl)c2)nc2ccccc21,-13,1.57
COc1ccc(-c2ccc(N3CCN(C(=O)CN(C[C@H]4CCCO4)C(=O)C4CCC4)CC3)nn2)c(OC)c1,-6,0.57
COc1cccc(CN2CCC[C@@]3(CCN(C(=O)c4cc(C)ccc4O)C3)C2)c1,-7,0.86
Cc1cc(=O)n(Cc2ccccc2F)c2cc(OCC(=O)NCCc3ccccc3)ccc12,-16,2.28
Cn1cc(CNc2ccc(C(N)=O)cc2)c(C2CCCCC2)n1,-6,1.25
CC(=O)Nn1ccc2nc(N3CCOCC3)ncc2c1=O,48,-5.74

Compound,% Inhibition [%],Z score
CCN(CCS(C)(=O)=O)CC1(CC#N)CC1,-4,0.6
COCc1nc(NCc2nc(-c3ccccc3F)no2)cc([C@H]2C[C@H](N)C2)n1,-5,0.66
Cn1nccc1CCNC(=O)c1nc(=O)[nH]c2ccccc12,-2,0.19
O=S(=O)(c1cccs1)N1CC[C@H](CNCc2cnc(C3CC3)o2)C1,0,0
Cc1csc(-c2cn(CC(=O)NCc3ccc(C)c(C)c3)cn2)n1,-3,0.37
Cc1cccc(O[C@@H](C)C(=O)Nc2nc(-c3ccccn3)cs2)c1,32,-3.22
CCOc1ccc(-c2ccc(N(C)C)nc2)nn1,-13,2.56
COC(=O)C[C@H]1CCCN1C(=O)[C@]1(c2ccccc2)C[C@H](O)C1,8,-1.18
Cc1ccc2sc(N(CCCN(C)C)C(=O)c3ccc(S(=O)(=O)N4CCCCCC4)cc3)nc2c1C,22,-2.8
CC(=O)c1cc(CN2CC[C@@]3(C2)CN(C)C(=O)O3)n(C)c1,-2,0.47
O=C(Nc1cc(-c2nc3ccccc3s2)c(Cl)cc1Cl)c1cc2ccccc2o1,-6,0.79
Cc1oc2ncnc(NC(=O)[C@@H]3COCCO3)c2c1C,-7,0.96
CCCS(=O)(=O)N1CCn2nc(-c3nc4cc(OC)ccc4[nH]3)cc2C1,-3,0.46
C[C@H]1CCCCN1CCCNC(=O)c1cc2n(n1)CCN(Cc1cccc(Cl)c1)C2=O,-7,0.83
Cc1cc(CC(=O)NCCc2noc(C3CCC3)n2)on1,-7,1.31
CCCN(CCC(=O)N1CCNCC1)S(=O)(=O)c1c(C)cc(C)cc1C,-6,1.15
CC(C)CC(=O)N1C[C@@H](CO)[C@H](NC(=O)c2ccccc2)C1,-12,2.13
Cc1ccn(CCC(=O)N2CCN(C)C[C@@H]2c2ccccc2)n1,6,-1.11
C[C@]1(c2ccc3c(c2)OCCO3)NC(=O)NC1=O,-2,0.17
CCC[C@H](C)c1cc(NC(=O)c2cc[nH]n2)[nH]n1,-9,0.91
C[C@@H](c1ccccc1)N1C(=O)C(=O)N(CCn2cncn2)C1=O,-3,0.54

Compound,% Inhibition [%],Z score
Cc1cc(CNC(=O)c2cc(-n3ccnc3C)ccn2)ccn1,-4,0.68
Cc1cc(C(=O)Nc2ccc3c(c2)CCC3)c(C)o1,5,-0.71
C[C@H](O)CN(C)S(=O)(=O)Cc1ccccc1,-9,0.96
O=C(Cc1n[nH]c2ccc(F)cc12)NCCCc1ccccc1,-8,1.2
COCCN1CCC[C@@H]1CNC(=O)CNC(=O)OCc1ccccc1,-6,0.91
CN(CCCF)[C@@H]1c2ccccc2N(C(=O)OC(C)(C)C)C[C@H]1O,7,-1.14
Cc1ccc(CC(=O)Nc2cc(NC(=O)c3ccc4c(c3)OCO4)ccc2F)cc1,0,-0.04
c1cc(-c2noc(C3CC3)n2)c2cc[nH]c2n1,-6,1.04
C[C@H]1CNCCN1C(=O)CCCOc1ccc(F)cc1F,-6,0.81
COCCNC(=O)c1cc2n(n1)CCN(Cc1ccc(Cl)c(Cl)c1)C2=O,-4,0.5
C[C@@H](Cc1cccs1)NC(=O)NC1CCCCC1,-13,1.65
Cc1ccc(NS(=O)(=O)c2ccc3c(c2)Cc2cc(S(=O)(=O)Nc4ccc(C)cc4C)ccc2-3)c(C)c1,-10,1.29
CCCc1cc(C(=O)N2CCC(c3ccccc3)CC2)sc1C,-1,0.2
NC(=O)Cn1c(=O)n(Cc2ccccc2F)c(=O)c2nscc21,-2,0.23
COc1ccnc(CN2CC(O)CC2c2ccc(F)cc2)c1 (stereo not drawn),-14,1.72
CC[C@@H](Cc1ccccc1)N(CC)C(=O)c1ccon1,-5,0.7
COCCCCN(C)C(=O)Cc1cccc2nsnc12,-13,1.4
Cc1cc(F)cc(CN2[C@@H]3CN(S(=O)(=O)c4ccc(Cl)cc4)C[C@@H]3OCCS2(=O)=O)c1,-9,1.39
Nc1ccc(C(=O)N2C[C@@H]3CC[C@H]2CN(C(=O)c2cnccn2)C3)cn1,0,-0.08
O=C1CC[C@]2(c3ccc4c(c3)CCCC4)NCCCN12,-4,0.53
C[C@H](NC(=O)c1cc(-c2ccccc2)cn1C)c1ccccn1,-5,0.66

Compound,% Inhibition [%],Z score
CCNc1nc(NCC)nc(Oc2ccc(=O)n(CCOc3ccccc3)n2)n1,-16,1.43
Cc1n[nH]nc1C(=O)N1CCCC[C@H]1C(=O)Nc1ccc(Cl)cc1Cl,-6,0.9
CCc1nn(CC)c(=O)c2cc(S(=O)(=O)Nc3ccccc3)cn12,1,-0.17
O=C(CN1CCn2nc([C@@H](O)CO)cc2C1)Nc1ccc(Cl)cn1,-24,2.11
Cc1nc(NC(=O)N(C)CCOCC2CC2)c(-c2ccccc2)s1,-11,1.08
COc1ccc(NCc2c(C)nn(C)c2C)c(C)n1,-12,1.39
C[C@H](O)c1cn(C2CN(C(=O)C(c3ccccc3)c3ccccc3)C2)nn1,3,-0.24
Nc1ccnc(N2CCC3(CCNC(=O)CC3)CC2)n1,-10,1.35
CCn1c(=O)c(C(=O)CN(Cc2ccccc2)Cc2ccccc2)c(N)n(Cc2ccccc2)c1=O,-1,0.14
COC1(c2ccnn2C)CN(c2nc(C)cc(C(F)(F)F)n2)C1,-2,0.24
Cc1cccc(OCc2ccc(C(=O)N(C)[C@H]3CCS(=O)(=O)C3)o2)c1,-6,0.85
NC(=O)C1CCN(CCCNC(=O)c2ccc3ccccc3n2)CC1,-1,0.06
CN(C(=O)C1c2ccccc2Oc2ccccc21)C1CCCCC1,-6,0.66
CCCn1nc(C)cc1NC(=O)N1CCN(c2ccc(C(C)=O)cc2)CC1,-4,0.53
CCc1[nH]nc(-c2ccc3c(c2)OCO3)c1NC(=O)c1cccc(OC)c1,-13,1.8
Cn1cnn(CC(=O)N2CCC(c3nc4c(s3)CCC4)CC2)c1=O,-6,1.15
CCn1ccc(C(=O)NCCc2noc(C)n2)n1,-11,1.34
O=C(CCc1nnc2ccc(N3CCOCC3)nn12)N1CCc2ccccc2C1,-25,2.42
Cc1ccncc1C(=O)N1CC(N2CC(F)(F)C[C@H]2CN(C)C)C1,-16,1.85
CC(C)n1cc(S(=O)(=O)N(C)c2nsc3ccccc23)cn1,-22,3.01
O=C(O)c1snc2ccc(Br)cc12,26,-3.7
